Results from the RNAGym collection of RNA variant scans (doi:10.1073/pnas.2313332121).
This sample is rich in variants without activity.

B1: TPR 5TU (parent)
chain: GGAUCUUCUCGAUCUAACAAAAAAGACAAAUCUGCCACAAAGCUUGAGAGCAUCUUCGGAUGCAGAGGCGGCAGCCUUCGGUGGCGCGAUAGCGCCAACGUUCUCAACUAUGACACGCAAAACGCGUGCUCCGUUGAAUGGAGUUUAUCAUG

Variants of: B1
Assay: polymerase ribozyme fitness, log enrichment relative to wild type (log ratio); higher = more active; in vitro selection for triplet polymerase activity
How it was run: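 One round of in vitro selection, in triplicate, was applied to PCR-built, transcribed mutant libraries of each subunit of a heterodimeric triplet polymerase ribozyme. The steps were annealing with a biotinylated primer, partner subunit and triplets, incubation frozen at −7 °C, gel excision of extended constructs, streptavidin-bead capture and RT-PCR. Fitness is the logarithm, base 2, of genotype enrichment over wild-type enrichment from inverse-variance-weighted replicate averages of Illumina-sequenced inputs and outputs, keeping genotypes with ≥10 input reads and ≥1 read per output.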

Row | Variant | polymerase ribozyme fitness (log ratio)
1 | U45G U53A G68A C69A A115G | ≤ -4.2
2 | G46A G81C G86U A89G U127G G136U G141A A150C | ≤ -4.2
3 | A47C C54U C69U C75A C76G | ≤ -4.2
4 | G48A C108U | ≤ -4.2
5 | A49C A52C U55A C93U C105U U127C | ≤ -4.2
6 | G48A C96U A98G | -0.496
7 | A49C C87U C96A C114G C116U A121U | ≤ -4.2
8 | A49C C54A U56A C125U G141C | ≤ -4.2
9 | A49C G141A | -3.79
10 | A47U A52C C57U G67A C96G | ≤ -4.2
11 | G46A G84U C103A C105G C108G C131G G141C | ≤ -4.2
12 | A47C U61A G140U U145G | ≤ -4.2
13 | A47C U90G A119U G126A C131G U134G | ≤ -4.2
14 | A47C C57G G65U C93A C125U | ≤ -4.2
15 | A49C C72G | ≤ -4.2
16 | G46U U55A C75U A89G C116G | ≤ -4.2
17 | A47C G84C A91U | ≤ -4.2
18 | G48A A49C U53A G100A | ≤ -4.2
19 | A49C C75U C85U C96A | ≤ -4.2
20 | G46C U61A G88C C99G U111A G143U U145C | ≤ -4.2
21 | A49C G94A C132A G143U | ≤ -4.2
22 | G46A U55A A91G A138G A142C | ≤ -4.2
23 | A49G C57G G74C A107U U134G | ≤ -4.2
24 | A49C U144A | ≤ -4.2

Row | Variant | polymerase ribozyme fitness (log ratio)
25 | A47C A89U C96U A98G A107U C114G C131A | ≤ -4.2
26 | G48C U61A C69G G84U G126A | ≤ -4.2
27 | G46U C54U G59U C76U A119U U146A | ≤ -4.2
28 | A49C G133C | ≤ -4.2
29 | G48C U53A G74C C85U C99U A119G A120G | ≤ -4.2
30 | G48U C118G | -0.339
31 | A49C G71C U101G A137U A150U | ≤ -4.2
32 | A47U G68U | ≤ -4.2
33 | G48C C75A C96G C108U | ≤ -4.2
34 | G46C C54A G70U C85G U130G A147U | ≤ -4.2
35 | A49C C99U U135G C149U | ≤ -4.2
36 | A47G G84U C149U | -3.35
37 | A47C G50A U102C U146A | -2.55
38 | A49C A52C A66G G86C A119G | ≤ -4.2
39 | A47G G88U U90C A110U U139G U144A | ≤ -4.2
40 | A47C G81C C99A U134G | -4.06
41 | A49C C125A | ≤ -4.2
42 | A49C G59U U77C G81C U109G G141C | ≤ -4.2
43 | G48A C72G | ≤ -4.2
44 | A47C G50A U53A G83A G92C G143U | ≤ -4.2
45 | G46A C99U G141A | ≤ -4.2
46 | A49C U56A A91U C93U C149U | ≤ -4.2
47 | A49C C51G C69A G84C U104G C105G A106U A122U | ≤ -4.2
48 | A49C C51U C76A A113U G126A | ≤ -4.2

Row | Variant | polymerase ribozyme fitness (log ratio)
49 | A47G C51G A52U U53A U56C C57A A66C | ≤ -4.2
50 | A47U C93G A106C | ≤ -4.2
51 | A49C A52G G58C A91U A137U U145G | ≤ -4.2
52 | G46U G94A A97U | ≤ -4.2
53 | A47C A49G G83A G140A | ≤ -4.2
54 | A47U G50C C93A C96G | ≤ -4.2
55 | A49G A91G | -4.05
56 | A47C A89C C103A G140U | ≤ -4.2
57 | A49C A73U | ≤ -4.2
58 | G48C U61A A73C C79G G83C C87G C125U | ≤ -4.2
59 | G48C C63U A142G | -1.03
60 | A47U A97G A98G C116U A150U | 0.886
61 | A49C C85A | ≤ -4.2
62 | G46U U56A C103A A107C | ≤ -4.2
63 | A47U G48C G71C G94A C108G G124C G141A | ≤ -4.2
64 | G48C U55A | -0.498
65 | A47G G84U | -1.59
66 | A47G G84C | -2.56
67 | G48A G84U A113C G124A U139A | ≤ -4.2
68 | A49C A97U | ≤ -4.2
69 | A49C C75G G88C A106G C125A | ≤ -4.2
70 | A47U G48C G68A C105A A113G U135C | ≤ -4.2
71 | G48C G68C C85A C96A | ≤ -4.2
72 | G48A A49U G70U C75A G88A | ≤ -4.2

Row | Variant | polymerase ribozyme fitness (log ratio)
73 | A49C G80C G92A A106U A113C C118U G141U G143U C149G | ≤ -4.2
74 | A49C A98G | ≤ -4.2
75 | G46U C85G | -1.84
76 | A49C U55A G143C | ≤ -4.2
77 | A47C C51U G67C G84A U90A G92A | ≤ -4.2
78 | G46U G84A A106U A150C | ≤ -4.2
79 | A49C A91G | ≤ -4.2
80 | G48A U53A C75U | ≤ -4.2
81 | A47U G48U G50A C54U C79A G84U C87U | ≤ -4.2
82 | G46C G65A C85A | ≤ -4.2
83 | A49C G84C | ≤ -4.2
84 | A49C C79U C103G C105A U139A G141C U148G | ≤ -4.2
85 | G46A A52C C93A U104G C132A | ≤ -4.2
86 | A49G C76A G94U A147G | ≤ -4.2
87 | A49C U53A C96G | ≤ -4.2
88 | A47U G94A U134G | -1.69
89 | A49C A52G G88U | ≤ -4.2
90 | G46C G94A G128C C129A | ≤ -4.2
91 | G46A C54U C93A U145A | ≤ -4.2
92 | G48C A60G U61A C85U | ≤ -4.2
93 | G48A C57A U144G | 0.472
94 | A49C G92U U127C | ≤ -4.2
95 | G48U C85A U104C C132A | ≤ -4.2
96 | A47U A89G C116U G133U A138C | -4.12

Row | Variant | polymerase ribozyme fitness (log ratio)
97 | G48C C125G | -0.571
98 | A47G U55G A98U U148A | ≤ -4.2
99 | G46U A49C A66C C79A U82C C96U A142G | ≤ -4.2
100 | A47C A49U C51U G59U A64C A119G C149G | ≤ -4.2
101 | G48U A52C G58U C79U G88U G126U | ≤ -4.2
102 | G48C A91G C105U A147G | ≤ -4.2
103 | A47C A49C G65A G84A A113G G141A | ≤ -4.2
104 | G48A C54A G84C G143A | ≤ -4.2
105 | A49C C63G C87U C93U U102G C116G U144A U145G C149U | ≤ -4.2
106 | G48C C79G G81U U127G | ≤ -4.2
107 | G46C C54U C95U C116U C118G | -2.25
108 | G48C C69A C149U | -2.77
109 | A47C G65A C75U C76A U102A U130G | ≤ -4.2
110 | A47C C93A A107G G140U | ≤ -4.2
111 | G48C C85A A120G | -2.75
112 | A47C G50A G65A C79U C114U | ≤ -4.2
113 | A49C C79A C108U C123A | ≤ -4.2
114 | G46A A60U A64G C85A G94U A120C | ≤ -4.2
115 | A49C G62A C63A C131G C132A | ≤ -4.2
116 | A49C G74C C87A C125U | ≤ -4.2
117 | G48C G94U C103U G140A | ≤ -4.2
118 | G48A G80C G94A C96U C99G | -3.97
119 | A47U C69U C93A A107C A115C | ≤ -4.2
120 | G48A G133U | -3.81

Row | Variant | polymerase ribozyme fitness (log ratio)
121 | A49C C75A G94C A97G A120C C125U G133A | ≤ -4.2
122 | G48C U61A C85U G92A C103A C105U | ≤ -4.2
123 | A47C G58C A64U U104C A107G | ≤ -4.2
124 | A47G G50A C85U C99A G124C U127G | ≤ -4.2
125 | A47G U102C A142C C149U | ≤ -4.2
126 | A47C G65C G88A C103A | ≤ -4.2
127 | A47G C85G A106U A115U G141U | ≤ -4.2
128 | G48U U53A U77G | ≤ -4.2
129 | A47C A52G G68C A91C | ≤ -4.2
130 | A47C A49C A91C A122G | ≤ -4.2
131 | A49C A98U C116G A121U U148C | ≤ -4.2
132 | A47U C79A G84U C118A G124A | ≤ -4.2
133 | G46U A47G G48A G50C A66U U144A A147C | ≤ -4.2
134 | A49C C57A C87U C116G | ≤ -4.2
135 | A49C C118A | ≤ -4.2
136 | G46A C76A G86U A121U U144G | ≤ -4.2
137 | A49C G83U | ≤ -4.2
138 | A47G C87U C99U | -1.24
139 | A49G A91C C93A A115U | ≤ -4.2
140 | G48C C57A C75G G83U A106G A107G A113U | ≤ -4.2
141 | A47C G65A C85A C129A G141U | ≤ -4.2
142 | A49C C79U U151G | ≤ -4.2
143 | G48C C54A G58C A91U U104G A121U | ≤ -4.2
144 | A47C A52G U77G G94U C99U | ≤ -4.2

Row | Variant | polymerase ribozyme fitness (log ratio)
145 | A47C C87A | ≤ -4.2
146 | A47C C87U | -0.109
147 | G46A G83C A89U U134A G141A | ≤ -4.2
148 | A49C C116U | ≤ -4.2
149 | A49G C99G G126U G143A U144G | ≤ -4.2
150 | A47U G84C C93U | ≤ -4.2
151 | A47G C95U U101C C125U C129G U134A | ≤ -4.2
152 | A49C C69A A73U G94A C103U | ≤ -4.2
153 | A49C C93A C103G G117U C149G | ≤ -4.2
154 | A49C U56C U82G | ≤ -4.2
155 | G46C G59C C93G | ≤ -4.2
156 | A47U A66C C76G U78G U101G C125A | ≤ -4.2
157 | A49G A52C A73G C75G G84U C93A A107U U111G U135C G140A | ≤ -4.2
158 | A49C U78A G94U A113U C116G G140C | ≤ -4.2
159 | A47C C103A G112A U135G | ≤ -4.2
160 | A49G C79G C93G C99A U127C G140A | ≤ -4.2
161 | G46A A47G G48A G50C G136A | ≤ -4.2
162 | G46U C57G A138C | ≤ -4.2
163 | G48A U61A C105G | ≤ -4.2
164 | A49C C75G G83U G141A U146A | ≤ -4.2
165 | A47C U53A G140A U144C | ≤ -4.2
166 | U45G U56A C75U A91U A97G A115G G140A | ≤ -4.2
167 | A49C G74U C79A C99U G124U | ≤ -4.2
